Measurements reported in patent US20240299401A1, “NOVEL REDOX-BASED THERAPEUTIC APPROACH FOR TREATMENT OF CANCER” (THE PENN STATE RESEARCH FOUNDATION, priority 2020, published 2024).

System: NFE2L2
Assay: NFE2L2 reporter assay in MCF7 cells
Conditions: increasing doses, 6 and 24 h

c1ccc([Se][Se]c2ccccc2)cc1 [Diphenyl diselenide, diphenyl diselenide]
NFE2L2 activity and extracellular reduced thiols: dose-dependent increase
